In the supplement of paper PMC4604168 (melanoma cell lines) one finds cell count data, which are given here for 28 molecules.

Some of the results follow. Many values rest on one well or one pass, so single values are uncertain.
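Further: cell number obtained by counting DAPI-stained nuclei in high-throughput microscope images with image analysis software, screen run in 1,536-well plates.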

In this assay the test system is SkMel30. As to the kind of experiment: cell count relative to DMSO control; melanoma cells; higher = more viable cells. As to conditions: library dose: low library concentration; 72 h.
The molecule `O=C(Nc1cc(C(F)(F)F)cc(C(F)(F)F)c1)c1cc(Cl)ccc1O` + CC(C)CCN1c2nc(Nc3cc(F)c(O)c(F)c3)ncc2N(C)C(=O)C1C [BID1870] (first compound 0.016 µM, partner dose 0.2 µM) registered a cell count of 87.7%.
`O=C(Nc1cc(C(F)(F)F)cc(C(F)(F)F)c1)c1cc(Cl)ccc1O` + O=C(Nc1cccc(Cl)c1)Nc1ncc(CCNc2ncnc3ccsc23)s1 [SNS314] (first compound 0.016 µM, partner dose 0.0008 µM) came in with a cell count of 102%.
As for `O=C(O)[C@@H]1[O][Sb](=[O])([O][Sb]2(=[O])[O][C@H]([C@H](O)CO)[C@H](O)[C@H](C(=O)O)[O]2)[O][C@H]([C@H](O)CO)[C@@H]1O` (stereo partly drawn) [stibogluconate] + CCc1ccc(CCOc2ccc(CC3SC(=O)NC3=O)cc2)nc1 [pioglitazone] (first compound 2 µM, partner dose 2 µM), the cell count was 129%.
For the molecule `O=C(O)[C@@H]1[O][Sb](=[O])([O][Sb]2(=[O])[O][C@H]([C@H](O)CO)[C@H](O)[C@H](C(=O)O)[O]2)[O][C@H]([C@H](O)CO)[C@@H]1O` (stereo partly drawn) [stibogluconate] + O=C(O)C(=O)Nc1sc2c(c1C(=O)O)CCNC2 [TCS401] (first compound 2 µM, partner dose 1.66667 µM), the cell count worked out at 91.6%.
To `O=C(Nc1cc(C(F)(F)F)cc(C(F)(F)F)c1)c1cc(Cl)ccc1O` + CS(=O)(=O)c1ccc(C(=O)Nc2ccc(Cl)c(-c3ccccn3)c2)c(Cl)c1 [vismodegib] (first compound 0.016 µM, partner dose 1 µM) belongs 81.7%; to `O=C(Nc1cc(C(F)(F)F)cc(C(F)(F)F)c1)c1cc(Cl)ccc1O` + COc1ccc(Cl)c(Nc2nc3ccccc3nc2NS(=O)(=O)c2cccc(NC(=O)C(C)(C)N)c2)c1 [XL147] (first compound 0.016 µM, partner dose 0.8 µM), 101%.
Turning to `O=C(O)c1ccc2c(c1)nc(Nc1cccc(Cl)c1)c1ccncc12` + Cn1nnc2c(C(N)=O)ncn2c1=O [temozolomide] (first compound 0.4 µM, partner dose 2 µM), the cell count came out at 101%.
As to `O=C(O)c1ccc2c(c1)nc(Nc1cccc(Cl)c1)c1ccncc12` + CC1(C)NC(=O)N(c2ccc([N+](=O)[O-])c(C(F)(F)F)c2)C1=O [nilutamide] (first compound 0.4 µM, partner dose 1 µM), the cell count was determined as 79.3%.
In turn, `O=C(O)c1ccc2c(c1)nc(Nc1cccc(Cl)c1)c1ccncc12` + Oc1nc(-c2ccc(C(F)(F)F)cc2)nc2c1CSCC2 [XAV939] (first compound 0.4 µM, partner dose 2 µM) had a cell count of 55.2%.
Next, `O=C(O)[C@@H]1[O][Sb](=[O])([O][Sb]2(=[O])[O][C@H]([C@H](O)CO)[C@H](O)[C@H](C(=O)O)[O]2)[O][C@H]([C@H](O)CO)[C@@H]1O` (stereo partly drawn) [stibogluconate] + C#Cc1cccc(Nc2ncnc3cc(OCCOC)c(OCCOC)cc23)c1 [erlotinib] (first compound 2 µM, partner dose 0.8 µM): 93.7%; `O=C(O)[C@@H]1[O][Sb](=[O])([O][Sb]2(=[O])[O][C@H]([C@H](O)CO)[C@H](O)[C@H](C(=O)O)[O]2)[O][C@H]([C@H](O)CO)[C@@H]1O` (stereo partly drawn) [stibogluconate] + C[C@@H]1CCN(C(=O)CC#N)C[C@@H]1N(C)c1ncnc2[nH]ccc12 [CP690550] (first compound 2 µM, partner dose 1 µM): 111%.
Regarding `O=C(O)[C@@H]1[O][Sb](=[O])([O][Sb]2(=[O])[O][C@H]([C@H](O)CO)[C@H](O)[C@H](C(=O)O)[O]2)[O][C@H]([C@H](O)CO)[C@@H]1O` (stereo partly drawn) [stibogluconate] + OCc1c[nH]c2ccccc12 [Indole-3-carbinol] (first compound 2 µM, partner dose 0.8 µM), the cell count was 97%.
In turn, `O=C(Nc1cc(C(F)(F)F)cc(C(F)(F)F)c1)c1cc(Cl)ccc1O` + Clc1ccc(Nc2nnc(Cc3ccncc3)c3ccccc23)cc1 [vatalanib] (first compound 0.016 µM, partner dose 2 µM) showed a cell count of 97.7%.
`O=C(Nc1cc(C(F)(F)F)cc(C(F)(F)F)c1)c1cc(Cl)ccc1O` + CN(NC(=O)CC(=O)NN(C)C(=S)c1ccccc1)C(=S)c1ccccc1 [STA4783] (first compound 0.016 µM, partner dose 0.006 µM) gave a cell count of 84.4%.
To `O=C(Nc1cc(C(F)(F)F)cc(C(F)(F)F)c1)c1cc(Cl)ccc1O` + COCC[n+]1c2c(n(Cc3cnccn3)c1C)C(=O)c1ccccc1C2=O [YM155] (first compound 0.016 µM, partner dose 0.0004 µM) belongs 90.1%.
`O=C(Nc1cc(C(F)(F)F)cc(C(F)(F)F)c1)c1cc(Cl)ccc1O` + O=C(O)c1ccc2c(c1)nc(Nc1cccc(Cl)c1)c1ccncc12 [CX4945] (first compound 0.016 µM, partner dose 0.4 µM) gave a cell count of 122%.
In the case of `O=C(Nc1cc(C(F)(F)F)cc(C(F)(F)F)c1)c1cc(Cl)ccc1O` + CCCCCCCCCCCCCCCCCCOP(=O)([O-])OC1CC[N+](C)(C)CC1 [Perifosine] (first compound 0.016 µM, partner dose 0.4 µM), the cell count is 99.1%.
On to `O=C(O)c1ccc2c(c1)nc(Nc1cccc(Cl)c1)c1ccncc12` + NC(=O)Nc1cc(-c2cccc(F)c2)sc1C(=O)N[C@H]1CCCNC1 [AZD7762] (first compound 0.4 µM, partner dose 0.02 µM), for which the cell count was determined as 109%.
To `O=C(Nc1cc(C(F)(F)F)cc(C(F)(F)F)c1)c1cc(Cl)ccc1O` + C#Cc1cccc(Nc2ncnc3cc(OCCOC)c(OCCOC)cc23)c1 [erlotinib] (first compound 0.016 µM, partner dose 0.8 µM) belongs 105%; to `O=C(O)[C@@H]1[O][Sb](=[O])([O][Sb]2(=[O])[O][C@H]([C@H](O)CO)[C@H](O)[C@H](C(=O)O)[O]2)[O][C@H]([C@H](O)CO)[C@@H]1O` (stereo partly drawn) [stibogluconate] + Nc1nc(F)nc2c1ncn2[C@@H]1O[C@H](CO)[C@@H](O)[C@@H]1O [fludarabine] (first compound 2 µM, partner dose 0.2 µM), 14.7%.
With `O=C(O)[C@@H]1[O][Sb](=[O])([O][Sb]2(=[O])[O][C@H]([C@H](O)CO)[C@H](O)[C@H](C(=O)O)[O]2)[O][C@H]([C@H](O)CO)[C@@H]1O` (stereo partly drawn) [stibogluconate] + Cn1nnc2c(C(N)=O)ncn2c1=O [temozolomide] (first compound 2 µM, partner dose 2 µM), the cell count turned out to be 77.7%.
As to `O=C(O)[C@@H]1[O][Sb](=[O])([O][Sb]2(=[O])[O][C@H]([C@H](O)CO)[C@H](O)[C@H](C(=O)O)[O]2)[O][C@H]([C@H](O)CO)[C@@H]1O` (stereo partly drawn) [stibogluconate] + CC(C)(C)c1cnc(CSc2cnc(NC(=O)C3CCNCC3)s2)o1 [SNS-032] (first compound 2 µM, partner dose 0.01 µM), the cell count stood at 108%.
For `O=C(O)c1ccc2c(c1)nc(Nc1cccc(Cl)c1)c1ccncc12` + CO[C@@H]1[C@H](N(C)C(=O)c2ccccc2)C[C@H]2O[C@]1(C)n1c3ccccc3c3c4c(c5c6ccccc6n2c5c31)C(=O)NC4 [Midostaurin] (first compound 0.4 µM, partner dose 0.08 µM), the cell count stood at 61.9%.
`O=C(O)[C@@H]1[O][Sb](=[O])([O][Sb]2(=[O])[O][C@H]([C@H](O)CO)[C@H](O)[C@H](C(=O)O)[O]2)[O][C@H]([C@H](O)CO)[C@@H]1O` (stereo partly drawn) [stibogluconate] + COCC[n+]1c2c(n(Cc3cnccn3)c1C)C(=O)c1ccccc1C2=O [YM155] (first compound 2 µM, partner dose 0.0004 µM): the cell count came out at 84.4%.
To `O=C(Nc1cc(C(F)(F)F)cc(C(F)(F)F)c1)c1cc(Cl)ccc1O` + NC1(c2ccc(-c3nc4ccn5c(=O)[nH]nc5c4cc3-c3ccccc3)cc2)CCC1 [MK2206] (first compound 0.016 µM, partner dose 0.4 µM) belongs 75.9%.
With `O=C(Nc1cc(C(F)(F)F)cc(C(F)(F)F)c1)c1cc(Cl)ccc1O` + O=c1[nH]nc(Sc2ncc([N+](=O)[O-])s2)n1-c1ccc2c(c1)OCCO2 [BI78D3] (first compound 0.016 µM, partner dose 0.2 µM), the cell count was determined as 94.3%.
To `O=C(O)[C@@H]1[O][Sb](=[O])([O][Sb]2(=[O])[O][C@H]([C@H](O)CO)[C@H](O)[C@H](C(=O)O)[O]2)[O][C@H]([C@H](O)CO)[C@@H]1O` (stereo partly drawn) [stibogluconate] + Nc1cccc2c1CN(C1CCC(=O)NC1=O)C2=O [lenalidomide] (first compound 2 µM, partner dose 1 µM) belongs 94.2%; to `Cn1nnc2c(C(N)=O)ncn2c1=O` [temozolomide] + CN(NC(=O)CC(=O)NN(C)C(=S)c1ccccc1)C(=S)c1ccccc1 [STA4783] (first compound 2 µM, partner dose 0.006 µM), 88.3%.
